# Results as given in the supplement of paper PMC11417369.
# The list shows a part of the results.
# System: PfHDP1 homeodomain (GST-tagged)
# Assay: gcPBM binding intensity (ln(normalized median fluorescence intensity)); higher = stronger DNA binding
# Outline: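 Binding intensity is defined as the maximum Masliner-normalised natural-log median intensity across replicate spots for either probe orientation. It was measured on an Agilent 4 × 180k array of primer-extended double-stranded 36-bp intergenic genomic probes and negative controls, to which GST-tagged P. falciparum DNA-binding domains made in E. coli were applied for 1 h in 1× PBS with 1% milk, 0.2 mg/ml BSA, 0.5% salmon testes DNA and 0.03% Triton X-100. Detection was by Alexa488 anti-GST antibody and scanning at 488 nm.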
row,Sequence,gcPBM binding intensity (ln)
1,GAATCACTAATTTTTTTACACACCACAATTTAATTT [CACACA_site8311],7.09
2,ACAAAACATAATTGTTGTACAAAAAGAATTATATAT [XGTACX_site8422],8.07
3,ATAATAATATAATATTCACACAATTGAAATAGTGTA [CACACA_site6083],6.39
4,ATTTTTTCTTATAAAAAAGAAAAAGAAAAAGAAAAA [CACACA_negctrl_site1216],6.43
5,TATATATTAAGATGCACACACAAGAAGTAATTATAA [CACACA_site5726],8.66
6,AAGTTAATGTTTTGCGCACACTTCTTTTTAATATAA [CACACA_site3938],8.41
7,TTCTTTATATAAACAAGTACATATAAAATACATATA [XGTACX_site8036],6.42
8,ACAGCTCTAGGACATGCATGTTATATAGAAAAAGAG [TGCATGCA_site703],7.21
9,AAATACATATTTAGAAGTACATTTATACATTTAATA [XGTACX_site8871],6.14
10,TTCATTAAAGTTATTACACACAGTTCTTCAACCAAA [CACACA_site7613],6.51
11,TGCCTATGACATGAATGTACATTAAAATTAAATAAA [XGTACX_site7126],6.47
12,GTTGGGTAATTCGTAACACACATAAAATATATATAA [CACACA_site3986],6.47
13,CACGCGCACCAACACACACACACACCCATATATATA [CACACA_site2204],8.31
14,CTGTACACTTAAACGGTGCAAAAAGAAAAAAAAGAA,10.6
15,GATGAGGACAGACACACACACATAAGTTGATACATA [CACACA_site7580],6.74
16,TTTTTTTCTTAAAGATGTACTTTTTAAAAACAATCT [XGTACX_site986],6.28
17,AGACATATTCTTTTTACACACTTGAATAAAAAATAT [CACACA_site1205],6.5
18,CATTTTATAAAAACAAGTACCCAACATATATATAAT [XGTACX_site5955],6.74
19,GTTTTTACTTTTATCTGTACATAATACTACCAATAT [XGTACX_site5414],7.06
20,TATATATAATATGAATGTACACAAAAAGGTAATACA [XGTACX_site6202],6.96
21,AAAAAAAAGAAATAGACACACATATATTTTTAAACA [CACACA_site3954],6.23
22,ATAATATTATGAACCTGTACATAATTTTTCTTTTCT [XGTACX_site3377],6.06
23,TATAATTTTTTTGAATTATATATATATATATATAAT [XGTACX_negctrl_site26],6.75

row,Sequence,gcPBM binding intensity (ln)
1,AGTATATTTCTAACTTGTACGAAATTAATAATTTAT [XGTACX_site6635],6.06
2,TTTGTTGTTGTGAAACGTACTCATAGGATGTTGTAT [XGTACX_site5716],6.41
3,ATATTTTCAATGTTCACACATACACAAAAAAAAAAA [CACACA_site6077],6.43
4,GCTTGGATATATTAATGTACTTATATATTATGTTGT [XGTACX_site3768],6.65
5,AAAATTTTTTTTATTTGTACACAATTCGATACATAA [XGTACX_site4804],6.76
6,TAAATAATCGCATAATGTACATATAATTTTTTTTTT [XGTACX_site4880],6.23
7,CCAATTCAAATATGCACACAAATTTGAAAACGATTA [CACACA_site3607],10.1
8,CTTTTGCCCAAAAAGGTACACACCACAATGTACATA [CACACA_site809],6.71
9,GTTAATATACATAAACGTACAGAATTATTATGAGTT [XGTACX_site5185],6.19
10,TTTTTTATTGTGATACGTATATTATTTTATGATAAA [CACACA_negctrl_site1591],6.61
11,TAAAAATGTAAACACACACACATAAATATATTTTAT [CACACA_site5397],6.92
12,ATATAGTAAAGTTATACACACATGAATTTTCCCATA [CACACA_site7457],6.51
13,ATATTTTAATTATAAAGTACATAAAAATATATAAAC [XGTACX_site6705],6.27
14,AAAGATGGAGTGATATGTACTGATATATTATTATAT [XGTACX_site6500],6.4
15,AAGCATAAAGTATATAGTACATATATATATATATAT [XGTACX_site2945],9.27
16,ATTAAAAAATCCATAGTGCACTACGATAGGTTCCGA [GTGCAC_site9463],10.3
17,ATTTTTTTTTTTTTTGAACACACATTATTAATTTTT [CACACA_site7990],6.57
18,ATATATTTTATATAGTGTACTTTAATTTTTTTTTTT [XGTACX_site5550],5.93
19,ATATATATATATGTTAGTACTTATATTGAAATGGTA [XGTACX_site1406],9.06
20,ATAAATAAAACAAAATGTACAAATATTCATATATTC [XGTACX_site1307],6.27
21,TTTCATTTCACAGACACACACACACCCTATATTTCC [CACACA_site3906],7.09
22,TTATTTACCTATTATAGTACATATAATTAATATAAT [XGTACX_site5724],6.35
23,ATCTTTCGTACATGTACACACAGAAAAAAAAAAAAA [CACACA_site2502],6.38

row,Sequence,gcPBM binding intensity (ln)
1,GTGTAATCATATAAGGGTACAAAAAATGTCTAACAA [XGTACX_site8122],6.9
2,GTTCCCATAAATAAATGTACATATTATATATATATA [XGTACX_site3242],8.73
3,ATTCATATCTACTTCACACACATTTGATCATTCAAA [CACACA_site7207],6.94
4,AAAATCTATATTAACACACACACAAAAAAAAAAAAA [CACACA_site6738],6.37
5,ATAGTATTTTTTATTACACACAAATAAAAAGAAAAA [CACACA_site2087],6.55
6,ATGAAACAGTAACATTGTACTTTTACAAAAAAATAA [XGTACX_site806],6.25
7,TTTAAAAAAAATATGTGTACTTAATATTTTCATATA [XGTACX_site7421],6.08
8,TACATATAAATAATAACACACACCTAGGTACATGGA [CACACA_site838],6.57
9,AGAAAGGAGGAAATAAAAGGACTTCTTTTTTTATAT [CACACA_negctrl_site810],6.05
10,CATACACAGAAACACACACACATATATATATATATA [CACACA_site4519],9.34
11,TAATTAATATATTTTTGTACTTATATATTTGCGTAT [XGTACX_site340],6.4
12,AATCCACAAAGACACACACACACATATATATATATA [CACACA_site1269],9.47
13,ATTTTTGATTTTAAAAGTACATAAGTATACTATTTA [XGTACX_site7162],5.98
14,TTTTGTAATTTTGTATGTACACATTAAAGTAATATG [XGTACX_site2401],6.39
15,TTATAATATATATGTGGTACTTATTTATTTATTTAT [XGTACX_site7572],6.37
16,AAAATTCTTCGGGGGAGTACAAGGATATTCTACGTT [XGTACX_site3974],7.4
17,AAAAATAAAATGATGGTGCACATAAAGTATGGTTAC,9.66
18,ATTGAAAATTATTTACCTTCTTTGAAAGAACAAATG [CACACA_negctrl_site1736],6.03
19,ATAAATAAATTTATACGTACACATAATATATATATA [XGTACX_site4634],8.63
20,TAAAAAAAAAAAAAAAGTACCCATACTATATTACAT [XGTACX_site946],6.22
21,TTACTAAACTTATATGTACACACATATAACATTAAT [CACACA_site8710],7.03
22,GTAAAAATTTCATATTCACACACAAAAAAAAAAAAT [CACACA_site8457],6.76
23,AGTAGTCTGGAGAAGAGTACATAGTATCTGATAACC [XGTACX_site2044],6.6

row,Sequence,gcPBM binding intensity (ln)
1,AAGAATTTTACAAAATGTACTTATGTTTTGTTTTAC [XGTACX_site5632],6.14
2,AAAAAAAAAATACAGGTGCAATAAGAAAAAAATGGT,9.85
3,TATATTAACAAAATGGTGCAATAATTTCTATATTAT [GTGCAC_site9857],10.5
4,CCAAATTTATAAAGAACACACACATATATATATATA [CACACA_site7900],9.23
5,TATACATATTTAATATGTACATAATAATACTTATTC [XGTACX_site6939],6.23
6,AAGCATGTAGAATAATGTACTTGTGATTTTAATATA [XGTACX_site8565],6.25
7,TTATTAAATGAAAAATGTACATATAAATGATTATAT [XGTACX_site2788],6.41
8,GAAATGTGTAGACACGCACACACAAAAAAATATATA [CACACA_site2912],6.64
9,AAAAATAAAAAAATAATAAAATAAAAAATAAAAAAT [TGCATGCA_negctrl_site89],6.46
10,TAAAAAAACATATATTGTACGGAGATAATAATTTTT [XGTACX_site2946],6.39
11,ATGTATAAACATATATGTACTTAAATAAAATGTTAA [XGTACX_site4044],6.53
12,CACCAATTCATATGCACACACATCTGCATATTATAT [CACACA_site1773],10.3
13,ATTAAAAGAACAATGTAAAAAAAGCAAATTAAAGAT [TGCATGCA_negctrl_site360],7.23
14,TATACTGTCAATTCTACACACCATAGGGGGAGCATA [CACACA_site1875],7.48
15,TTCTAATATATGCATACACACAAATGTGAATATACA [CACACA_site2142],7.22
16,TTTTTTATTACTTTGTGTACTTACACAGAACCTTAT [XGTACX_site6038],6.7
17,AAAAATGCAATTTAATGTACACATAAGATGTTATTT [XGTACX_site6853],7.68
18,AAAAAAAAAAAAAACACACACACACCCAAATATATA [CACACA_site1169],6.74
19,ATATATTTATTTATATGTACATAATATTTTTCTCAG [XGTACX_site800],6.57
20,ATAAAAATATAAACATGTACATAAAAATCTATATAT [XGTACX_site405],6.72
